In article PMC9911399, “Two distinct binding modes provide the RNA-binding protein RbFox with extraordinary sequence specificity”:
Numbering of substitutions follows the chain as printed; changes in the protein carry UniProt numbers. The list shows a part of the results.

B1: GAAUGGC (DNA:RNA)
RNA: GGGAGACCGGAAUUCAGAUUGUCCGAAUGGCUUAAAUCCCGUCGUAGCCACCA
DNA 1: CAATCTGAATTCCGGTCTCCC
DNA 2: TGGTGGCTACGACGGGATT
B2: CUUCUGU (DNA:RNA)
RNA: B1 RNA with G25C, A26U, A27U, U28C, G29U, C31U
DNA 1: CAATCTGAATTCCGGTCTCCC
DNA 2: TGGTGGCTACGACGGGATT
B3: CCUGUUC (DNA:RNA)
RNA: B1 RNA with G25C, A26C, A27U, U28G, G29U, G30U
DNA 1: CAATCTGAATTCCGGTCTCCC
DNA 2: TGGTGGCTACGACGGGATT
B4: GGUGGGG (DNA:RNA)
RNA: B1 RNA with A26G, A27U, U28G, C31G
DNA 1: CAATCTGAATTCCGGTCTCCC
DNA 2: TGGTGGCTACGACGGGATT
B5: CGUAAAC (DNA:RNA)
RNA: B1 RNA with G25C, A26G, A27U, U28A, G29A, G30A
DNA 1: CAATCTGAATTCCGGTCTCCC
DNA 2: TGGTGGCTACGACGGGATT
B6: AUUUGCC (DNA:RNA)
RNA: B1 RNA with G25A, A26U, A27U, G30C
DNA 1: CAATCTGAATTCCGGTCTCCC
DNA 2: TGGTGGCTACGACGGGATT
B7: GCAGGGU (DNA:RNA)
RNA: B1 RNA with A26C, U28G, C31U
DNA 1: CAATCTGAATTCCGGTCTCCC
DNA 2: TGGTGGCTACGACGGGATT
B8: CCUUAGA (DNA:RNA)
RNA: B1 RNA with G25C, A26C, A27U, G29A, C31A
DNA 1: CAATCTGAATTCCGGTCTCCC
DNA 2: TGGTGGCTACGACGGGATT
B9: GAUAGCA (DNA:RNA)
RNA: B1 RNA with A27U, U28A, G30C, C31A
DNA 1: CAATCTGAATTCCGGTCTCCC
DNA 2: TGGTGGCTACGACGGGATT
B10: CUUAGAU (DNA:RNA)
RNA: B1 RNA with G25C, A26U, A27U, U28A, G30A, C31U
DNA 1: CAATCTGAATTCCGGTCTCCC
DNA 2: TGGTGGCTACGACGGGATT
B11: CAUAGAA (DNA:RNA)
RNA: B1 RNA with G25C, A27U, U28A, G30A, C31A
DNA 1: CAATCTGAATTCCGGTCTCCC
DNA 2: TGGTGGCTACGACGGGATT
B12: UGGUUCU (DNA:RNA)
RNA: B1 RNA with G25U, A26G, A27G, G29U, G30C, C31U
DNA 1: CAATCTGAATTCCGGTCTCCC
DNA 2: TGGTGGCTACGACGGGATT
B13: AAUCUGG (DNA:RNA)
RNA: B1 RNA with G25A, A27U, U28C, G29U, C31G
DNA 1: CAATCTGAATTCCGGTCTCCC
DNA 2: TGGTGGCTACGACGGGATT
B14: GGUGCCG (DNA:RNA)
RNA: B1 RNA with A26G, A27U, U28G, G29C, G30C, C31G
DNA 1: CAATCTGAATTCCGGTCTCCC
DNA 2: TGGTGGCTACGACGGGATT
B15: CGAUGAC (DNA:RNA)
RNA: B1 RNA with G25C, A26G, G30A
DNA 1: CAATCTGAATTCCGGTCTCCC
DNA 2: TGGTGGCTACGACGGGATT
B16: CUGGUUA (DNA:RNA)
RNA: GGGAGACCGGAAUUCAGAUUGUCCCUGGUUAUUAAAUCCCGUCGUAGCCACCA
DNA 1: CAATCTGAATTCCGGTCTCCC
DNA 2: TGGTGGCTACGACGGGATT
B17: UACCAGA (DNA:RNA)
RNA: B1 RNA with G25U, A27C, U28C, G29A, C31A
DNA 1: CAATCTGAATTCCGGTCTCCC
DNA 2: TGGTGGCTACGACGGGATT
B18: UUCCGUU (DNA:RNA)
RNA: B16 RNA with C25U, G27C, G28C, U29G, A31U
DNA 1: CAATCTGAATTCCGGTCTCCC
DNA 2: TGGTGGCTACGACGGGATT
B19: CCGCUCG (DNA:RNA)
RNA: B16 RNA with U26C, G28C, U30C, A31G
DNA 1: CAATCTGAATTCCGGTCTCCC
DNA 2: TGGTGGCTACGACGGGATT
B20: GUCAUUA (DNA:RNA)
RNA: B16 RNA with C25G, G27C, G28A
DNA 1: CAATCTGAATTCCGGTCTCCC
DNA 2: TGGTGGCTACGACGGGATT
B21: CUUAAAU (DNA:RNA)
RNA: B16 RNA with G27U, G28A, U29A, U30A, A31U
DNA 1: CAATCTGAATTCCGGTCTCCC
DNA 2: TGGTGGCTACGACGGGATT
B22: UGUUAUG (DNA:RNA)
RNA: B16 RNA with C25U, U26G, G27U, G28U, U29A, A31G
DNA 1: CAATCTGAATTCCGGTCTCCC
DNA 2: TGGTGGCTACGACGGGATT
B23: GGCGCUC (DNA:RNA)
RNA: B16 RNA with C25G, U26G, G27C, U29C, A31C
DNA 1: CAATCTGAATTCCGGTCTCCC
DNA 2: TGGTGGCTACGACGGGATT
B24: AAAAGCU (DNA:RNA)
RNA: B1 RNA with G25A, U28A, G30C, C31U
DNA 1: CAATCTGAATTCCGGTCTCCC
DNA 2: TGGTGGCTACGACGGGATT
B25: CUCGACA (DNA:RNA)
RNA: B16 RNA with G27C, U29A, U30C
DNA 1: CAATCTGAATTCCGGTCTCCC
DNA 2: TGGTGGCTACGACGGGATT
B26: CUCCCAU (DNA:RNA)
RNA: B16 RNA with G27C, G28C, U29C, U30A, A31U
DNA 1: CAATCTGAATTCCGGTCTCCC
DNA 2: TGGTGGCTACGACGGGATT
B27: GGCACAC (DNA:RNA)
RNA: B1 RNA with A26G, A27C, U28A, G29C, G30A
DNA 1: CAATCTGAATTCCGGTCTCCC
DNA 2: TGGTGGCTACGACGGGATT
B28: CGGCCCA (DNA:RNA)
RNA: B16 RNA with U26G, G28C, U29C, U30C
DNA 1: CAATCTGAATTCCGGTCTCCC
DNA 2: TGGTGGCTACGACGGGATT
B29: GGUACCU (DNA:RNA)
RNA: B1 RNA with A26G, A27U, U28A, G29C, G30C, C31U
DNA 1: CAATCTGAATTCCGGTCTCCC
DNA 2: TGGTGGCTACGACGGGATT
B30: CUUUAGU (DNA:RNA)
RNA: B16 RNA with G27U, G28U, U29A, U30G, A31U
DNA 1: CAATCTGAATTCCGGTCTCCC
DNA 2: TGGTGGCTACGACGGGATT
B31: AGCCAAG (DNA:RNA)
RNA: GGGAGACCGGAAUUCAGAUUGUCCAGCCAAGUUAAAUCCCGUCGUAGCCACCA
DNA 1: CAATCTGAATTCCGGTCTCCC
DNA 2: TGGTGGCTACGACGGGATT

The binders below were run against T1, RBFOX1 RRM RbFoxmut (Fox-RRM*) (Homo sapiens, UniProt Q9NWB1 109-208, R118D;E147R;N151S;E152T) (assay: EMSA; HiTS-Eq, 1 nM pool, 10 min; buffer printed only for the single-RNA assays: 10 mM Tris pH 7.5, 150 mM NaCl, 3.4 mM EDTA, 0.001% NP-40, 30 C). Settings: tags: His6 N-terminal (pET28a); label: 5' 32P.
T1 sequence: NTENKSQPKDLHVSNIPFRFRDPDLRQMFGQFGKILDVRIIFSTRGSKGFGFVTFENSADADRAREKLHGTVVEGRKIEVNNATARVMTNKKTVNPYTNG
In short: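 Purified wild-type or mutant RbFox RRM at increasing concentrations was equilibrated with 1 nM of 5′-radiolabelled RNA carrying 7 randomized nucleotides for 10 min in 50 µL. Unbound RNA was separated by 8% native PAGE and sequenced. Relative association constants came from read-count changes of each RNA species compared with the control reaction, normalised to the cognate motif.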
For B1, the binding signal was 0.592 KA relative to UGCAUGU.
With B2 the binding signal was 0.0941 KA relative to UGCAUGU.
For B3, the binding signal was 0.0785 KA relative to UGCAUGU.
For B4, the binding signal was 0.0688 KA relative to UGCAUGU.
In the case of B5, the binding signal is reported as 0.0996 KA relative to UGCAUGU.
In the case of B6, the binding signal is reported as 0.257 KA relative to UGCAUGU.
B7 was tested, and the binding signal was 0.106 KA relative to UGCAUGU.
B8 was tested, and the binding signal was 0.102 KA relative to UGCAUGU.
With B9 the binding signal was 0.106 KA relative to UGCAUGU.
With B10 the binding signal was 0.0658 KA relative to UGCAUGU.
B11 was tested, and the binding signal was 0.102 KA relative to UGCAUGU.
With B12 the binding signal was 0.147 KA relative to UGCAUGU.
For B13, the binding signal was 0.0668 KA relative to UGCAUGU.
B14 was tested, and the binding signal was 0.128 KA relative to UGCAUGU.
For B15, the binding signal was 0.141 KA relative to UGCAUGU.
In the case of B16, the binding signal is reported as 0.128 KA relative to UGCAUGU.
With B17 the binding signal was 0.0673 KA relative to UGCAUGU.
With B18 the binding signal was 0.0756 KA relative to UGCAUGU.
In the case of B19, the binding signal is reported as 0.109 KA relative to UGCAUGU.
B20 was tested, and the binding signal was 0.126 KA relative to UGCAUGU.
For B21, the binding signal was 0.0627 KA relative to UGCAUGU.
With B22 the binding signal was 1.04 KA relative to UGCAUGU.
In the case of B23, the binding signal is reported as 0.0533 KA relative to UGCAUGU.
B24 was tested, and the binding signal was 0.0733 KA relative to UGCAUGU.
B25 was tested, and the binding signal was 0.056 KA relative to UGCAUGU.
In the case of B26, the binding signal is reported as 0.0551 KA relative to UGCAUGU.
For B27, the binding signal was 0.0968 KA relative to UGCAUGU.
B28 was tested, and the binding signal was 0.058 KA relative to UGCAUGU.
With B29 the binding signal was 0.0791 KA relative to UGCAUGU.
In the case of B30, the binding signal is reported as 0.144 KA relative to UGCAUGU.
With B31 the binding signal was 0.102 KA relative to UGCAUGU.
